This passage reports activation results from PubChem BioAssay AID1346428 (National Center for Advancing Translational Sciences (NCATS), 2018).

Hit rate of the full screen: of about 48,000 compounds, about 1,200 (2.5%) were called active. Another 2% or so got no clear call; they are omitted.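 The calls were made as follows: active = activation of at least 60% and not above a set upper limit (about 1 call in 100 departs from these limits); inconclusive = activation of 40% to 60%, or above that upper limit; inactive = activation under 40%.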 Some of the results follow.

The test concerns the target Probable G-protein coupled receptor 32 (Homo sapiens) (UniProt O75388). Put plainly: qHTS for Agonists of Human Resolvin D1 Receptor DRV1. Also: 0% is about no effect. To be noted: CHO-K1 GPR32 beta-arrestin PathHunter luminescence, 90 min; at 76.9 µM; stronger effect = higher value; zero percent set by DMSO-only wells. The method in brief: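 PathHunter beta-arrestin recruitment in CHO-K1 cells stably expressing ProLink-tagged GPR32. Cells were exposed to compound for 90 min at 37 C, then chemiluminescence was read after 1 h detection at ambient temperature; DMSO served as basal control.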
Sequence of UniProt O75388 (O75388 whole entry, looked up): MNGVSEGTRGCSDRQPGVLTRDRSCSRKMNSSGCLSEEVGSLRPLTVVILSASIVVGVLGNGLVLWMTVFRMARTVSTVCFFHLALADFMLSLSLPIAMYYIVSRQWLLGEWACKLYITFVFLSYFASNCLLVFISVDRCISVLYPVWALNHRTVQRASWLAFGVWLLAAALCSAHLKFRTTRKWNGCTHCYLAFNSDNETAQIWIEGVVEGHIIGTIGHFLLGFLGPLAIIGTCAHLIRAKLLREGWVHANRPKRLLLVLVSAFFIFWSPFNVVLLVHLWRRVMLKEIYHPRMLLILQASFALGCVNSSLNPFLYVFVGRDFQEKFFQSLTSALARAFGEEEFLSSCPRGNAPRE
Background: qHTS replaces the single test concentration by a dilution series.
`COC(=O)C1=C(C)NC(C)=C(C(=O)OCCCN2CCC(c3ccccc3)(c3ccccc3)CC2)C1c1cccc([N+](=O)[O-])c1` (stereo unspecified): the activation was active: 105%. The result for `CCN1CCc2c(sc(NC(=O)CSc3ccccc3)c2-c2nc3ccccc3s2)C1` reads inactive: -29.8%; that for `CCC1=Nc2cc(C(=O)NCCCOC(C)C)ccc2Sc2ccc(C)cc21`, inactive: -30.2%. The result for `Cc1cc2oc(C(=O)N(Cc3ccc(N(C)C)cc3)CC3CCCO3)c(C)c2cc1C` (stereo unspecified) reads inactive: -22.5%. Under `O=C(NCc1ccc(Cl)cc1)C1(c2cccs2)CCOCC1` stands inactive: 6.2%; under `O=C(Nc1ccc(NC(=O)c2cccs2)cc1)c1ccc(Cl)cc1`, inactive: 13.8%. Regarding `COC(=O)c1ccccc1NC(=O)Cn1ncc2c(C)n(Cc3ccc(F)cc3)c(C)c2c1=O`, the activation was inactive: -5.49%.

Turning to `Cc1ccc(OCCSc2nc3ccccc3n2CC(=O)N2CCCCC2)cc1C`, the activation is inactive: 2.9%. Under `COC(=O)c1ccccc1NC(=O)CCn1nc(C)c2c(C)n(-c3ccccc3)nc2c1=O` stands inactive: -10.4%; under `CC(=O)c1cccc(Nc2cc(C)nc3nc(-c4ccccc4C)nn23)c1`, inactive: -24.9%.

For the compound `C/C=C/CC(C)C(O)C1C(=O)NC(CC)C(=O)N(C)CC(=O)N(C)C(CC(C)C)C(=O)NC(C(C)C)C(=O)N(C)C(CC(C)C)C(=O)NC(C)C(=O)NC(C)C(=O)N(C)C(CC(C)C)C(=O)N(C)C(CC(C)C)C(=O)N(C)C(C(C)C)C(=O)N1C` (stereo unspecified), the activation is inactive: -25.3%.

Take `COc1ccc2oc(=O)c(-c3nc4ccc(C)cc4[nH]3)cc2c1`: the activation is inactive: 3.5%.

As for `O=C(COc1ccccc1F)Nc1ccc2nc(SCc3ccccc3)sc2c1`, the activation was inactive: 35.6%.

For the compound `CCC(=O)N1CCc2cc(S(=O)(=O)NCCC(=O)Nc3cccc(SC)c3)ccc21`, the activation was inactive: 34.2%.

Turning to `CCOC(=O)c1cc(-c2ccc(F)cc2)n(CCC(=O)NCc2ccc(C)cc2)c1C`, the activation was inactive: -31.8%.

With `Cc1ccc(-n2ncc(C(=O)N3CCN(c4cccc(C)c4C)CC3)c2C2CCNCC2)c(C)c1`, the activation was inactive: 22.8%. As to `COc1ccc(Br)cc1CC1C(=O)Nc2ccccc21` (stereo unspecified), the activation is inactive: 21.9%.

Take `COc1ccccc1NC(=O)C1=C(C)Nc2nc(SCc3ccccc3Cl)nn2C1c1cccnc1` (stereo unspecified): the activation was inactive: 2.99%. The result for `CN(C(=O)NCc1noc2ccccc12)c1cccc(Cl)c1` reads inactive: -11.6%.

Consider `Cc1ccc2c(c1)sc1nc(=O)n(-c3cccc(Cl)c3)c(=O)n12`, for which the activation was inactive: -1.67%.

As for `CCCN1C(C(=O)c2ccccc2)=C(OC(=O)C(C)(C)C)c2ccccc2S1(=O)=O`, the activation was inactive: -36.7%.

Turning to `Cc1ccc(NC(=O)CN2CCN(C3CCCCC3)C(=O)C2=O)cc1C`, the activation was inactive: 0.0016%.

Turning to `CCCCc1nn2c(C)c(-c3ccc(OCC)cc3)nc2s1`, the activation was inactive: 5.24%.

On to `Cc1cc(Cl)ccc1NS(=O)(=O)c1cc2[nH]c(=O)c(=O)[nH]c2cc1C`, for which the activation is inactive: 13.2%. As to `Cc1ccc(-n2c(=O)[nH]c3sc4c(c3c2=O)CCNC4)cc1C`, the activation was inactive: 6.23%.

For the compound `Cc1ccc(NC(c2cccc(Cl)c2)c2nnc(-c3ccccc3)o2)cc1F` (stereo unspecified), the activation was inactive: -26.5%. The result for `CCOC(=O)C1CCN(C(=O)Cn2nc(CC)n3c(cc4occc43)c2=O)CC1` reads inactive: -12.7%. Turning to `O=C(Cn1ncc2c3ccccc3n(Cc3cccc(Cl)c3)c2c1=O)N1CCCCC1`, the activation was inactive: -18.8%. Regarding `COc1ccc(CN2C(=O)c3ccccc3C2C(=O)NC2CCCCCC2)c(OC)c1` (stereo unspecified), the activation was inactive: -3.57%. Regarding `CCc1ccc(C2CC(=O)N(c3cccc(C(F)(F)F)c3)C3=C2C(=O)OC3)cc1` (stereo unspecified), the activation was inactive: 25.7%. With `CCOCCc1nn2c(=O)cc(COC(=O)c3ccc(NC(=O)c4ccc(F)cc4)cc3)nc2s1`, the activation was inactive: 19.8%. `COc1cc(NC(=O)Cn2c(=O)n(CC3CCCO3)c(=O)c3cc(OC)c(OC)cc32)cc(OC)c1` (stereo unspecified): the activation was inactive: -0.593%. The result for `COc1ccccc1C(=O)NCCc1csc(-c2ccc(C(F)(F)F)cc2)n1` reads inactive: 12%; that for `Cc1ccc(C)c(NC2=C(c3ccc(C(F)(F)F)cc3)C(=O)c3ccccc32)c1`, inactive: -16.7%; that for `CC[C@H](C)C(=O)O[C@H]1C[C@@H](C)C=C2C=C[C@H](C)[C@H](CC[C@@H]3C[C@@H](O)CC(=O)O3)[C@H]21`, inactive: 41%. Under `CC(=O)N1CCc2cc(CNC(=O)Nc3ccccc3C(F)(F)F)ccc21` stands inactive: 9%; under `Clc1ccc(C(Cn2ccnc2)OCc2ccc(Sc3ccccc3)cc2)c(Cl)c1` (stereo unspecified), inactive: -10.1%. In the case of `COc1ccc2c(CNC3CCC(C)CC3)c(C(=O)O)n(Cc3ccccc3)c2c1` (stereo unspecified), the activation is inactive: 39%. The result for `Cc1cccc(Cn2nnc3c(=O)[nH]c(C4CCCN(C(=O)c5ccc(C(C)(C)C)cc5)C4)nc32)c1` (stereo unspecified) reads inactive: -13.1%; that for `CCCN1CCCc2cc(CN(CCCN3CCOCC3)C(=O)Nc3ccc(OCC)cc3)ccc21`, inactive: 17%; that for `CCOc1ccccc1CNC(=O)C1CCN(Cc2cc3ccccc3n2Cc2ccccc2)CC1`, inactive: -24.1%. Under `Cc1ccc(-c2cn3nc(N4CCC(C(=O)Nc5ccccc5C)CC4)sc3n2)cc1` stands inactive: 0.322%; under `Cn1c2ccccc2c2c(C(=O)N3CCN(c4cccc(C(F)(F)F)c4)CC3)cn(C3CCCCC3)c(=O)c21`, inactive: -30.2%. Under `CCC(C(=O)Nc1cc(OC)ccc1OC)n1nc(-c2ccccc2)c2c(c1=O)CCCC2` (stereo unspecified) stands inactive: -23.4%; under `CN(C)S(=O)(=O)N(CC(=O)NCCSc1ccc(Cl)cc1)c1ccccc1`, active: 69.9%; under `Cc1ccc2oc(C(=O)Nc3ccc(S(=O)(=O)Nc4ncccn4)cc3)cc(=O)c2c1`, inactive: -7.95%. In the case of `O=C(COCc1cc(-c2ccc3c(c2)OCO3)on1)N1CCN(c2cccc(C(F)(F)F)c2)CC1`, the activation is inactive: -25.8%. The result for `COc1cc2nc(NC(=O)c3ccc(S(=O)(=O)N4CCCC4)cc3)sc2cc1OC` reads inactive: 33.2%. Under `CN1C(C(=O)NC(C)(C)C)=CC(c2ccc3c(c2)OCO3)=NS1(=O)=O` stands inactive: -2.88%; under `Cc1cc(C)c2oc(C(=O)Nc3nc4ccc(Cl)cc4s3)cc(=O)c2c1`, inactive: -8.91%. Under `Cc1ccc(-n2ccnc(NCc3cccs3)c2=O)cc1C` stands inactive: 45.1%.
